Seven compounds from the CheMixHub viscosity set can be followed below.

± gives the uncertainty stated by the source. For part of its entries the source gives two or more results. The other results are left out here. An entry can have further records. The values listed for one entry are repeated measurements in other runs, samples, wells, individuals or studies. Marks in square brackets tell the records apart. The letters are not those of the source and start again with each entry.

As to `C=CC(=O)OCC`, the viscosity reads like this: (298.15 K, 101 kPa) 0.533 ± 0.022 mPa·s [study A] and 0.518 ± 0.007 mPa·s [study B] and 0.537 ± 0.07 mPa·s [study C] and 0.53 ± 0.008 mPa·s [study D]; (308.15 K, 101 kPa) 0.4643 ± 0.019 mPa·s [study A] and 0.456 ± 0.007 mPa·s [study B] and 0.472 ± 0.07 mPa·s [study C] and 0.465 ± 0.007 mPa·s [study D].

For the compound `OC1CCCC1`, the viscosity (313.15 K, 100 kPa) is 5.76 ± 0.17 mPa·s [study A] and 5.442 mPa·s [study B].

As to `Clc1ccccc1`, the viscosity is, setting by setting: (298.15 K, 101 kPa) 0.75 ± 0.02 mPa·s [study A] and 0.754 ± 0.0076 mPa·s [study B] and 0.751 ± 0.008 mPa·s [study C] and 0.7824 ± 0.008 mPa·s [study D] and 0.7577 ± 0.02 mPa·s [study E] and 0.7542 ± 0.0065 mPa·s [study F] and 0.763 ± 0.076 mPa·s [study G]; (303.15 K, 101 kPa) 0.702 ± 0.024 mPa·s [study A] and 0.713 ± 0.011 mPa·s [study B] and 0.7126 ± 0.029 mPa·s [study C] and 0.7134 ± 0.0068 mPa·s [study D] and 0.702 ± 0.015 mPa·s [study E] and 0.7215 ± 0.021 mPa·s [study F] and 0.675 ± 0.007 mPa·s [study G] and 0.7401 ± 0.0078 mPa·s [study H]; (308.15 K, 101 kPa) 0.669 ± 0.018 mPa·s, 0.6775 ± 0.012 mPa·s, 0.6775 ± 0.023 mPa·s, 0.6685 ± 0.014 mPa·s, 0.669 ± 0.023 mPa·s, 0.6987 ± 0.0076 mPa·s, 0.669 ± 0.008 mPa·s, 0.678 ± 0.011 mPa·s, 0.669 ± 0.014 mPa·s, 0.7009 ± 0.07 mPa·s, 0.6795 ± 0.021 mPa·s [several studies]; (313.15 K, 101 kPa) 0.6469 ± 0.0058 mPa·s, 0.638 ± 0.017 mPa·s, 0.637 ± 0.017 mPa·s, 0.6387 ± 0.011 mPa·s, 0.6387 ± 0.022 mPa·s, 0.628 ± 0.011 mPa·s, 0.63 ± 0.022 mPa·s, 0.6574 ± 0.0074 mPa·s, 0.63 ± 0.013 mPa·s, 0.6323 ± 0.026 mPa·s, 0.632 ± 0.011 mPa·s, 0.6434 ± 0.021 mPa·s [several studies].

As to `CCc1ccccc1`, for the setting “308.15 K, 101 kPa”, the viscosity was 0.567 ± 0.016 mPa·s [study A] and 0.5537 ± 0.014 mPa·s [study B] and 0.5484 ± 0.023 mPa·s [study C] and 0.5668 ± 0.0051 mPa·s [study D].

As for `CCCCn1cc[n+](C)c1.F[P-](F)(F)(F)(F)F`, the viscosity (298.15 K, 101 kPa) was 181.5 ± 73 mPa·s [study A] and 205.6 ± 7.3 mPa·s [study B] and 261 mPa·s [study C].

With `COC(C)(C)C`, the viscosity (303.15 K, 101 kPa) was 0.3387 ± 0.0072 mPa·s [study A] and 0.359 ± 0.05 mPa·s [study B] and 0.349 ± 1 mPa·s [study C] and 0.349 ± 0.003 mPa·s [study D].

Turning to `Clc1cccc2ccccc12`, the viscosity (298.15 K, 101.33 kPa) is 2.806 ± 0.063 mPa·s [study A] and 3.02 ± 0.15 mPa·s, 3.02 ± 0.17 mPa·s [study B] and 2.783 ± 0.12 mPa·s, 2.783 ± 0.11 mPa·s [study C]; the viscosity (303.15 K, 101.33 kPa) is 2.487 ± 0.056 mPa·s [study A] and 2.707 ± 0.14 mPa·s, 2.707 ± 0.15 mPa·s [study B] and 2.502 ± 0.11 mPa·s, 2.502 ± 0.1 mPa·s [study C]; the viscosity (308.15 K, 101.33 kPa) was 2.214 ± 0.051 mPa·s [study A] and 2.437 ± 0.12 mPa·s, 2.437 ± 0.13 mPa·s [study B] and 2.259 ± 0.1 mPa·s, 2.259 ± 0.091 mPa·s [study C].

What is called viscosity is the internal friction of a fluid under shear. A lower viscosity goes with a thin fluid.
